# Source: PubChem BioAssay AID588342 (National Center for Advancing Translational Sciences (NCATS), 2011)
# Among all 360,000 compounds or so, about 25,000 (6.9%) were called active. The shares of active, inactive and inconclusive entries below differ from those in the screen. The call rests on the fitted dose curve; in most records, active means well fitted inhibition curve with a large enough effect; inconclusive means small, poorly fitted or top-dose-only effect; inactive means flat fitted curve, though single readings scatter. Where the call is inconclusive, the potency comes from a doubtful curve fit.
# Molecular target: Luciferin 4-monooxygenase (Photinus pyralis) (UniProt P08659)
# Assay: qHTS profiling assay for firefly luciferase inhibitor/activator using purifed enzyme and Km concentrations of substrates (counterscreen for miR-21 project); further: nearly all actives have a fitted effect of over 55% in size;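 on activity change, negative = inhibition: plate controls were vehicle for no effect and reference inhibitor for full effect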
# Settings: purified FLuc, luminescence inhibition; series mostly up to 57.5 µM; activity change, negative = inhibition: at the top concentration
# Outline: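 Biochemical qHTS of compounds, final roughly 60 µM downward over six points, against 10 nM purified firefly luciferase using Km concentrations of substrates (10 uM D-luciferin, 10 uM ATP) in Tris acetate pH 7.5 buffer; luminescence output.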
# Potency means the concentration at half of the fitted maximal effect; tags describe the fitted curve by direction and shape.
# Sequence of UniProt P08659 (P08659 whole entry, looked up): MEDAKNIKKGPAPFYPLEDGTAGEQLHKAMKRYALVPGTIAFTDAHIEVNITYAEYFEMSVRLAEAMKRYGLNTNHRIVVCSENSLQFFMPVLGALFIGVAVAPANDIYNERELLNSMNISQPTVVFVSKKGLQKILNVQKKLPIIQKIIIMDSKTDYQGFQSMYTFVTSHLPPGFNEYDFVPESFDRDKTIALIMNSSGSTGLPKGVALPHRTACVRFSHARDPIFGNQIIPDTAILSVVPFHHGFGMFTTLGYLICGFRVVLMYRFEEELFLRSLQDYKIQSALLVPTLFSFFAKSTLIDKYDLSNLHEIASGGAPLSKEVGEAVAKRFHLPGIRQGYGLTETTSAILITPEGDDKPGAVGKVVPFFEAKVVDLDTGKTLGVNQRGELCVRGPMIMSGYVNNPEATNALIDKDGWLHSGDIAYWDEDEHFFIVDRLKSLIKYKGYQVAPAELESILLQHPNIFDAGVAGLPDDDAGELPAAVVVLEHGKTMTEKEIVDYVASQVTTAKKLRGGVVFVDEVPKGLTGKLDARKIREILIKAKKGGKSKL
Structure (SMILES),Potency,"activity change, negative = inhibition"
Cc1cc(C)cc(NC(=O)CSc2nnc(-c3cc(C)[nH]n3)n2N)c1,"inconclusive: 19 µM [inhibitor, partial curve]",
COc1ccc(-c2nnc(SCC(=O)N3CCOCC3)o2)cc1,active: 21.3 µM,
Cc1cccc(Oc2ccc(NC(=O)C3CC=CCC3C(=O)O)cc2)c1 (stereo not given),"inconclusive: 37.9 µM [inhibitor, single point]",
COc1ccc(C(=O)Nc2ccc(N3CCN(C)CC3)cc2)cc1,active: 19 µM,
COc1ccc(OC)c(-c2noc(N3CCN(c4cccc(C(F)(F)F)c4)CC3)n2)c1,,inactive: -0.0396%
Cc1nc2cc(NC(=O)CS(=O)(=O)c3ccc(F)cc3)ccc2s1,"inconclusive: 30.1 µM [inhibitor, partial curve, poor fit]",
CCCCC1=NC2(CCCC2)C(=O)N1Cc1ccc(-c2ccccc2-c2nn[nH]n2)cc1,"inconclusive: 19 µM [inhibitor, partial curve, poor fit]",
O=C1[C@@H]2Cc3c([nH]c4ccccc34)[C@@H](c3ccccc3)N2C(=O)[C@@H]2Cc3c([nH]c4ccccc34)[C@@H](c3ccccc3)N12,,inactive: 2.68%
Cc1ccc(S(=O)(=O)NCCC(=O)NNC(=O)COc2ccccc2Cl)cc1C,,inactive: -0.713%
CC(=O)N(C)c1ccc(N=Cc2c(O)ccc3ccccc23)cc1,"inconclusive: 16.9 µM [inhibitor, partial curve]",
Cc1cccc(-n2c3nc(=O)[nH]c(=O)c-3cc3ccc(Cl)cc32)c1C,,inactive: -6.95%
CCOc1ccc(-c2cc(C(=O)NCCc3ccc(C)cc3)c3ccccc3n2)cc1,active: 1.35 µM,
O=C(/C=C/c1cccc([N+](=O)[O-])c1)c1ccco1,"inconclusive: 13.5 µM [inhibitor, partial curve]",
Cc1cc(Nc2cc(Cl)ccc2C)n2nc(-c3ccccc3)nc2n1,,inactive: 4.1%
COCCCNC(=S)N(CCO)Cc1cc2cc3c(cc2[nH]c1=O)OCCO3,,inactive: -0.978%
S=c1[nH]nc(-c2cccnc2)n1-c1ccc2c(c1)OCCO2,"inconclusive: 23.9 µM [inhibitor, partial curve, poor fit]",
CN1CCN(CCCNC(=O)c2ccc(/C=C3\Sc4ccccc4N(Cc4ccccc4F)C3=O)cc2)CC1,"inconclusive: 23.9 µM [inhibitor, single point]",
Cc1ccc(NC(=O)CN(C)C(=O)CCC(=O)c2cccs2)cc1,,inactive: -15.6%
COc1ccc(OCCCn2c(C3CC(=O)N(c4ccc(F)cc4)C3)nc3ccccc32)cc1 (stereo not given),"inconclusive: 26.9 µM [inhibitor, single point]",
O=C(CSc1nnc2c(n1)[nH]c1ccccc12)Nc1ccc(S(=O)(=O)Nc2ncccn2)cc1,"inconclusive: 30.1 µM [inhibitor, single point]",
